Laboratory results taken from PubChem BioAssay (NCI).
Several values for one entry are separate records, joined by “and”; a condition that tells them apart may be missing. Identical values can stand only once.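 Method: 48-hour compound exposure of cells in 96-well plates, five concentrations, linear interpolation of endpoints. The concentration for 50% growth inhibition is given as GI50. At the TGI there is no net growth.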

system: NCI-H322M lung; test: NCI anticancer screen, dose series, 48 h

Row | SMILES | TGI | GI50
1 | CC1=C(C(=O)Nc2cc(F)c(F)cc2F)C(c2ccc(N(C)C)cc2)C(C(=O)Nc2cc(F)c(F)cc2F)=C(C)N1 | 97.4 µM | 
2 | Cc1nc2ccccc2c(/C=C/c2ccc(F)cc2)c1C(=O)/C=C/c1ccccc1 | > 100 µM | 3.32 µM
3 | Nc1nc(N)c2ncn(Cc3ccccc3CO)c2n1 | > 100 µM | 
4 | O=C(Nc1cccc2[nH]c(C(F)(F)F)nc12)c1ccc(Br)cc1F | 12.9 µM | 3.36 µM
5 | O=C(O)C(Cc1ccc(O)cc1)N=Cc1nc(-c2ccccc2)oc1O (stereo not given) | > 100 µM | 
6 | CCOC1OC(CO[Si](C)(C)C(C)(C)C)C(O)CC1n1ccc(=O)[nH]c1=O (stereo not given) | > 100 µM | 
7 | O=C1/C(=C/c2ccc([N+](=O)[O-])s2)Oc2ccc(Br)cc21 | 5.88 µM | 1.95 µM
8 | O=C1C=CC(=O)N1c1ccc2ccccc2c1 | 33 µM | 16.8 µM
9 | COc1cccc2c1C(=O)c1c(O)c3c(c(O)c1C2=O)C[C@@](O)(C(=O)CO)C[C@@H]3OC1CC2C(OCN2CN2COC3C(C)OC(O[C@H]4C[C@](O)(C(=O)CO)Cc5c(O)c6c(c(O)c54)C(=O)c4c(OC)cccc4C6=O)CC32)C(C)O1 (stereo not given in full) | 0.0816 µM | 0.025 µM
10 | CC(C)(C)c1ccc(OCCCCCCCN2CCNCC2)cc1 | 2.96 µM | 1.55 µM
11 | COc1cc2c(cc1OCCCN1CCN(CCCOc3cc4c(cc3OC)C(=O)N3C[C@H](F)C[C@H]3C=N4)CC1)N=C[C@@H]1C[C@@H](F)CN1C2=O | > 49.5 µM | 0.348 µM
12 | COc1cc(Br)c(/C=N/N=C(\N)NO)cc1OC | > 100 µM | 
13 | O=C1c2ccccc2C(=O)N1CCN(CCN1C(=O)c2ccccc2C1=O)Cc1ccccc1 | > 100 µM | 
14 | C=CC(=O)N1CCN(c2nc(OC[C@@H]3CCCN3C)nc3c(F)c(-c4nc(N)cc(C)c4C(F)(F)F)c(Cl)cc23)[C@@H](C)C1 | 19.2 µM | 6.12 µM
15 | CCOC(=O)c1ccc(N[C@@H]2c3cc4c(cc3C(c3cc(OC)c(O)c(OC)c3)[C@H]3C(=O)OCC32)OCO4)cc1 (stereo not given in full) | 19.5 µM | 
16 | Cc1cc(NS(=O)(=O)c2ccc(NC(=O)c3ccc4nc5ccccc5c(Nc5ccc(S(N)(=O)=O)cc5)c4c3)cc2)no1 | > 100 µM | 
17 | CCc1n(Cc2ccc3ccccc3c2)cc[n+]1Cc1ccc2ccccc2c1 | 6.71 µM | 2.12 µM
18 | O=C1C=CC2(C=C1)O[C@H](CCc1ccccc1)[C@@H](CCc1ccccc1)O2 | > 100 µM | 
19 | COc1ccc(-n2c(C)nc3ccc(NC4OC(COC(C)=O)C(OC(C)=O)C(OC(C)=O)C4OC(C)=O)cc3c2=O)cc1 (stereo not given) | > 100 µM | 
20 | COc1ccc(/C=C2\CC3C4CC=C5C[C@@H](N6CCCC6)CC[C@]5(C)C4CC[C@]3(C)[C@H]2O)cc1OC (stereo not given in full) | 16.7 µM | 
21 | O=S(=O)(c1ccccc1)C1(C2(S(=O)(=O)c3ccccc3)CCN=N2)CCN=N1 (stereo not given) | > 100 µM | 
22 | c1ccc(Nc2nnc(-c3ccccc3Nc3ccccc3-c3nnc(Nc4ccccc4)s3)s2)cc1 | > 100 µM | 
23 | Cc1ccnn1CCc1ccc(Cl)cc1Cl | > 100 µM | 

Row | SMILES | TGI | GI50
24 | O=C(O)c1cc(-c2ccc3cc(O)c(O)cc3c2)ccc1O | > 12.5 µM | 
25 | CCN1C(c2ccccc2)=CC(c2ccccc2)(C(Cl)(Cl)Cl)C=C1c1ccccc1 | > 100 µM | 
26 | COc1ccc2c(c1)C1Oc3ccccc3CC1CO2 (stereo not given) | > 100 µM | 
27 | c1ccc([P+](Cc2ccc(C[P+](c3ccccc3)(c3ccccc3)c3ccccc3)s2)(c2ccccc2)c2ccccc2)cc1 | > 100 µM | 
28 | CN(C)Cc1nsc(N(C)C)n1 | > 100 µM | 
29 | C=CCNC(=S)NC=C(C(N)=O)C(N)=O | > 100 µM | 
30 | CCOC(=O)CCC(NC(=O)c1ccc(Oc2nc3cc(N)cc(N)c3nc2-c2ccccc2)cc1)C(=O)OCC (stereo not given) | > 100 µM | 67.9 µM
31 | O=C(OCc1ccccc1)N1N=NC2C3CC(OCc4ccccc4)(OCc4ccccc4)C(O3)C21 (stereo not given) | > 100 µM | 
32 | COc1cc2c(cc1OCCCN1CCOCC1)N=C[C@@H]1CCCN1C2=O | 76.4 µM | 
33 | COc1cc(C(C)c2cc3c(cc2OCCCCCOc2cc4c(cc2C(C)c2cc(OC)c(OC)c(OC)c2)OCO4)OCO3)cc(OC)c1OC (stereo not given) | > 100 µM | 
34 | O=c1c2cc([N+](=O)[O-])ccc2[nH]n1Cc1ccccc1Cl | > 100 µM | 
35 | COc1c(O)ccc(/C=N/NC(=S)NCOCCOC(C)=O)c1OC | > 100 µM | 
36 | Cc1ccc2c(n1)C(=O)c1cc(C)c(C)cc1C2=O | > 100 µM | 
37 | CC1=NN(c2nc(N)nc(CCl)n2)C(C)(C)C1 | > 100 µM | 
38 | COc1ccccc1NC(=S)Nc1ccccn1 | > 100 µM | 
39 | c1ccc2c(c1)n1c(N3CCCC3)[n+]3ccccc3c1c1c3cccc[n+]3c(N3CCCC3)n21 | > 100 µM | 
40 | COc1ccc(-c2cc(-c3ccco3)c(C#N)c(=O)n2C2OC(COC(C)=O)C(OC(C)=O)C(OC(C)=O)C2OC(C)=O)cc1 (stereo not given) | > 100 µM | > 100 µM and 44.9 µM
41 | O=C(NCCc1nccs1)c1cnc2c(S)cccc2c1 | 13.4 µM | 2.78 µM
42 | O=C1CC2=CCCC2O1 (stereo not given) | > 100 µM | 
43 | O=C(O)CC(CC(=O)O)n1cccc1 | > 100 µM | 
44 | CN(C)Cc1cc(C(=O)/C=C/c2ccc(Cl)cc2Cl)cc(CN(C)C)c1O | 15.9 µM | 
45 | COc1cc(C2c3cc4c(cc3[C@@H](Nc3cnc5ccccc5c3)C3COC(=O)[C@H]23)OCO4)cc(OC)c1O (stereo not given in full) | > 29.6 µM | 
46 | CCC(=O)NC(NNS(=O)(=O)c1ccc(C)cc1)(C(F)(F)F)C(F)(F)F | > 100 µM | 

Row | SMILES | TGI | GI50
47 | CC(=O)O[C@H]1[C@@H](N2CCCCC2)C[C@H]2[C@@H]3CC=C4C[C@@H](N5CCCC5)CC[C@]4(C)[C@H]3CC[C@@]21C | > 100 µM | 
48 | CCOC(=O)c1nc2sc(Cl)cn2c1/C=N/N=C(N)N | 46.4 µM | 21.2 µM
49 | ON[C@@H]1C=C[C@H](n2cnc3c(NC4CC4)ncnc32)C1 | > 100 µM | 
50 | CC(=O)CC(=O)Nc1ccc(OS(N)(=O)=O)cc1 | > 100 µM | 
51 | C[C@]12CC/C(=N\OCCN3CCCC3)C=C1CCC1C2CC[C@@]2(C)C1CC[C@]2(C)O (stereo not given in full) | 32.4 µM | 
52 | CC(C)(C)C1CC[C@H](O)[C@H]([C@@H](O)CC2CC(=O)N(c3ccccc3)C(=O)C2)C1 (stereo not given in full) | > 100 µM | 
53 | CCOP(=O)(OCC)/C(C#N)=C/c1cccn1C | > 100 µM | 
54 | O=C(Nc1ccc(Br)cc1)c1cc(Br)ccc1O | > 23 µM | 0.32 µM and 0.563 µM
55 | O=[N+]([O-])c1cc2c(ccc3ccccc32)o1 | 5.67 µM | 1.66 µM
56 | NC(N)=N/N=C/c1c(Cl)nc2n1CCS2 | > 100 µM | 
57 | O=C1C=C(c2ccccc2)NC1(c1ccccc1)c1cc(-c2ccccc2)[nH]c1-c1ccccc1 (stereo not given) | > 100 µM | 
58 | CN(C)/C=N/S(=O)(=O)c1nn2c(C=O)c(-c3ccc(-c4ccccc4)cc3)nc2s1 | 23.5 µM | 
59 | CC(=O)OC1CCC2(C)C(=CCC3C2CCC2(C)C3CC3OC4(CCC(C)CN4)C(C)C32)C1 (stereo not given) | > 100 µM | 
60 | O=C1c2c[n+](Cc3ccccc3)ccc2-c2nc3ccccc3c3ccnc1c23 | 1.94 µM | 0.516 µM
61 | CC(C)(C(=O)N(C(=O)N1CCN(c2ccccc2)CC1)S(=O)(=O)c1ccccc1)c1ccc(Cl)cc1 | > 100 µM | 
62 | CC[C@@]1(O)C(=O)OCc2c1cc1n(c2=O)Cc2cc3c(N)c(OC)ccc3nc2-1 | 0.939 µM | 0.228 µM
63 | CC[n+]1c(/C=C/c2cc(C(=O)OC)n3c2sc2ccccc23)sc2ccccc21 | 29.8 µM | 
64 | COC(=O)/C=C1\C(=O)Nc2ccc(Br)cc21 | 5 µM | 
65 | O=C1/C(=C/c2ccccc2)CN(C(=O)/C=C/c2ccccc2)C/C1=C\c1ccccc1 | > 94 µM | 
66 | O=[N+]([O-])C(=C1c2ccccc2-c2ccccc21)[N+](=O)[O-] | > 100 µM | 
67 | CSc1cc(Cl)c(C(=O)Nc2ccccc2)cc1S(=O)(=O)n1cc[nH]c1=O | > 100 µM | 
68 | CC(C)(C)c1cc(C(C)(C)C)c(SSc2c(C(C)(C)C)cc(C(C)(C)C)c(O)c2O)c(O)c1O | > 100 µM | 
